Reference: article PMC12640937, “Integrating drug effects on individual cardiac ionic currents and cardiac action potentials to understand nonclinical translation to clinical ECG changes” (Frontiers in Pharmacology, 2025)
Read-outs that look alike come from different tables or passages of the source.

Tests used:
[1] = tested on: adult human primary ventricular trabeculae; assay: Action potential recordings from adult human ventricular trabeculae (sharp electrode); settings: for change in APD: diltiazem 3.84 then 38.4 µM or nifedipine 0.23 then 1 µM, alone
[2] = tested on: adult human primary ventricular trabeculae; settings: ref Page et al., 2016, cited from earlier work

COc1ccc([C@@H]2Sc3ccccc3N(CCN(C)C)C(=O)[C@@H]2OC(C)=O)cc1 [diltiazem]
change in APD [1]: concentration-dependent APD shortening

CN(CCOc1ccc(NS(C)(=O)=O)cc1)CCc1ccc(NS(C)(=O)=O)cc1 [dofetilide]
average percent change in APD90 ([2]; 100 nM dofetilide, 25 experiments, 11 donors, 95% CI 53.4% and 106.7%, Qu et al., 2017): 80.1%
change in APD30, APD50, APD90 ([1]; dofetilide 0.01 µM added to 38.4 µM diltiazem or 1 µM nifedipine): further decreases in APD30 and APD50, whereas APD90 did not change
change in APD30, APD50, APD90 ([1]; dofetilide 0.1 µM added to 38.4 µM diltiazem or 1 µM nifedipine): an increase in APD90, but not APD30 or APD50
change in APD30, APD50, APD90 ([1]; dofetilide 0.1 µM alone, 1 Hz): prolonged APD30, APD50, and APD90

COC(=O)C1=C(C)NC(C)=C(C(=O)OC)C1c1ccccc1[N+](=O)[O-] [nifedipine]
change in APD [1]: concentration-dependent APD shortening

COc1ccc(CCN(C)CCCC(C#N)(c2ccc(OC)c(OC)c2)C(C)C)cc1OC (stereo not shown) [verapamil]
change in APD30, APD50, APD90 [2]: did not alter APD30, APD50, or APD90
